The values that follow come from PMC5539426.

Numbering of substitutions follows the chain as printed. In names and notes the source's numbering stands. These are yes or no findings as the source states them, for the method shown. In cells and extracts the contact can be indirect. Some binding calls cover weakened binding; strength is not graded here. Tags and fused reporters may be left off the sequences shown.

What all share (assay): pull-down; TatB, C-terminally His-tagged TatC and C-terminally FLAG-tagged substrate coproduced in E. coli DADE-P (or DADE); cells lysed, solubilised with digitonin 1 h at 4°C; TatC-His isolated on Ni-charged beads; wash 50 mM NaH2PO4 pH 8.0, 300 mM NaCl, 40 mM imidazole, 0.03% digitonin; elution with 700 mM imidazole; eluate blotted with anti-His, anti-TatB and anti-FLAG
Test [1] concerns the target T1, TatBC-His complex (TatB and C-terminally His-tagged TatC) (E. coli) (UniProt P69425+P69423).
T1 sequence 1: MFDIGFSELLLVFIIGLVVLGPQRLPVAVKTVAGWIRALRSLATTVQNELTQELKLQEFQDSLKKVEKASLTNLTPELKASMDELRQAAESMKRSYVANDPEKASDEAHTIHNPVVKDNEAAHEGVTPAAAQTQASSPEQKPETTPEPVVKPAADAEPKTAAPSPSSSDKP
T1 sequence 2: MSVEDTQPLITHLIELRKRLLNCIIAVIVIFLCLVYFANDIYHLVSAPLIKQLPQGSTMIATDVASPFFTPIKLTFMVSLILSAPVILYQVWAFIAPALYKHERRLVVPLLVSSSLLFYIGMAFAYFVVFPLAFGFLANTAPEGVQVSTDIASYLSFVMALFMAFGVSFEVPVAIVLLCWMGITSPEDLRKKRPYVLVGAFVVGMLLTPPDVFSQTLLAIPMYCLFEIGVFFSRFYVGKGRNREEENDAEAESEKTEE

In test [2] the target is T2, TatBC^F94D-His complex (TatB and C-terminally His-tagged TatC F94D) (E. coli) (UniProt P69425+P69423).
T2 sequence 1: T1 sequence 1
T2 sequence 2: T1 sequence 2 with F94D

Test [3] has as its target T3, C-terminally His-tagged TatC (E. coli) (UniProt P69423).
T3 sequence: T1 sequence 2

B1: C-terminally FLAG-tagged SufI with its native signal peptide (protein, UniProt P26648 28-470)
chain: MSLSRRQFIQASGIALCAGAVPLKASAAGQQQPLPVPPLLESRRGQPLFMTVQRAHWSFTPGTRASVWGINGRYLGPTIRVWKGDDVKLIYSNRLTENVSMTVAGLQVPGPLMGGPARMMSPNADWAPVLPIRQNAATLWYHANTPNRTAQQVYNGLAGMWLVEDEVSKSLPIPNHYGVDDFPVIIQDKRLDNFGTPEYNEPGSGGFVGDTLLVNGVQSPYVEVSRGWVRLRLLNASNSRRYQLQMNDGRPLHVISGDQGFLPAPVSVKQLSLAPGERREILVDMSNGDEVSITCGEAASIVDRIRGFFEPSSILVSTLVLTLRPTGLLPLVTDSLPMRLLPTEIMAGSPIRSRDISLGDDPGINGQLWDVNRIDVTAQQGTWERWTVRADEPQAFHIEGVMFQIRNVNGAMPFPEDRGWKDTVWVDGQVELLVYFGQPSWAHFPFYFNSQTLEMADRGSIGQLLVNPVP
On to B1, for which the figures for the binding entry in test [1] and in test [2] were “binds” and “no binding”, respectively.

B2: C-terminally FLAG-tagged SufI with the A15L substitution in the signal peptide (protein, UniProt P26648 28-470)
chain: B1 chain with A15L
B2: the binding result in test [1] and in test [2] was “binds” throughout.

B3: FLAG-tagged SufI S12L/G13L/I14L/A15L variant (protein, UniProt P26648 28-470)
chain: B1 chain with S12L, G13L, I14L, A15L
Regarding B3, the binding entry in test [1] was “binds”.

B4: FLAG-tagged SufI C17L/A18L/G19L/A20L variant (protein, UniProt P26648 28-470)
chain: B1 chain with C17L, A18L, G19L, A20L
With B4, the binding entry in test [1] is listed as “binds”.

B5: C-terminally FLAG-tagged SufI with the G13L substitution in the signal peptide (protein, UniProt P26648 28-470)
chain: B1 chain with G13L
Turning to B5, the binding result in test [1] and in test [2] was “binds” in each case.

B6: C-terminally FLAG-tagged SufI with the G19L substitution in the signal peptide (protein, UniProt P26648 28-470)
chain: B1 chain with G19L
Take B6: the binding entry in test [1] and in test [2] was “binds” in each case.

B7: C-terminally FLAG-tagged SufI with the S12L substitution in the signal peptide (protein, UniProt P26648 28-470)
chain: B1 chain with S12L
In the case of B7, the binding entry in test [1] and in test [2] was “binds” in each case.

B8: TatB (protein, UniProt P69425 1-171)
chain: T1 sequence 1
Turning to B8, the binding entry in test [3] is reported as “binds”.
